18 molecules from the supplement of paper PMC10369915 can be followed below.

Some of the results follow. Rule as the data show it: active = 3.2 or more and inactive = the rest. Only a few entries rise above the background.
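Also: displayed peptides selected on beads carrying the immobilized SH2 domain, with library peptides lacking any tyrosine serving as negative controls.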

One experiment concerns the target SHP2 C-SH2 domain E139D. Put plainly: enrichment score (SH2-bound / input frequency) (ratio); bacterial display of known human phosphotyrosine sites (pTyr-Var adds point mutants) read by sequencing; higher = stronger binding; tyrosines were phosphorylated by kinases first. The following applies: peptide library: pTyr-Var.
Take SNMPTYSGHFS [GRIN2A_Y1224_T1229S]: the enrichment score is inactive: 0.775.
Same read-out and setting: under NIWDSYTTNKV [GNB1_Y85_I80N] stands inactive: 1.11; under PLYSKYWPNHI [GREB1L_Y1560_R1558S], inactive: 1.19.
Same read-out and setting: the same measure for KLPFLYDDPFS [GPX2_Y127_P126L_YF]: inactive: 1.38.
Same read-out and setting: under IGEVVYQRAAM [GRIN2A_Y502_V506A] stands inactive: 0.907.
For the molecule AKNKDYMSFIR [GNE_Y197_I200F], the enrichment score was inactive: 0.837.
The same measure, in the same setting: the same measure for GAAMLYFPSVS [GPR143_Y177_YF]: inactive: 0.989; for LIDSSYLTRTA [GREB1L_Y1063]: inactive: 0.83; for LDAFIYDAAVL [GRIN2A_Y730]: inactive: 0.785.
Same read-out and setting: the same measure for EFTAGYNVKFD [GPX4_Y123_A120T]: inactive: 1.46; for DNLNNYVFQGQ [GRIN2A_Y978]: inactive: 0.995.
On the same count and under the same terms, under ITLKGYNLSNS [GNPTAB_Y728_K732N] stands inactive: 1.28; under LTQRTYMLENA [GPAA1_Y49_S51L], inactive: 1; under KLPFPYDDPFS [GPX2_Y127_YF], inactive: 1.05.
For the molecule TPSGNYVACGG [GNB1_Y111_A106T], the enrichment score was inactive: 0.666.
Same read-out and setting: under EKMWSYMKSAE [GRIA3_Y705] stands inactive: 1.13; under HCFAAYFQQGD [GPI_Y351_R347C], inactive: 2.06.
Turning to AAVLNYKAGRD [GRIN2A_Y737], the enrichment score was inactive: 0.737.

A further experiment addresses SHP2 C-SH2 domain wild-type. Described as above. The following applies: peptide library: pTyr-Var.
Take SNMPTYSGHFS [GRIN2A_Y1224_T1229S]: the enrichment score was inactive: 0.703.
Consider NIWDSYTTNKV [GNB1_Y85_I80N], for which the enrichment score is inactive: 0.857.
Still for that read-out and setting: under PLYSKYWPNHI [GREB1L_Y1560_R1558S] stands inactive: 0.979.
The same measure, in the same setting: under KLPFLYDDPFS [GPX2_Y127_P126L_YF] stands inactive: 1; under IGEVVYQRAAM [GRIN2A_Y502_V506A], inactive: 0.665; under AKNKDYMSFIR [GNE_Y197_I200F], inactive: 0.79.
Still for that read-out and setting: the same measure for GAAMLYFPSVS [GPR143_Y177_YF]: inactive: 0.727.
With LIDSSYLTRTA [GREB1L_Y1063], the enrichment score was inactive: 0.702.
With LDAFIYDAAVL [GRIN2A_Y730], the enrichment score was inactive: 0.97.
The same measure, in the same setting: the same measure for EFTAGYNVKFD [GPX4_Y123_A120T]: inactive: 0.742; for DNLNNYVFQGQ [GRIN2A_Y978]: inactive: 0.875; for ITLKGYNLSNS [GNPTAB_Y728_K732N]: inactive: 0.645.
With LTQRTYMLENA [GPAA1_Y49_S51L], the enrichment score was inactive: 0.95.
Still for that read-out and setting: the same measure for KLPFPYDDPFS [GPX2_Y127_YF]: inactive: 1.11.
Turning to TPSGNYVACGG [GNB1_Y111_A106T], the enrichment score is inactive: 0.737.
Consider EKMWSYMKSAE [GRIA3_Y705], for which the enrichment score was inactive: 0.82.
As for HCFAAYFQQGD [GPI_Y351_R347C], the enrichment score was inactive: 1.97.
Same read-out and setting: under AAVLNYKAGRD [GRIN2A_Y737] stands inactive: 0.614.

The target of a further experiment is SHP2 N-SH2 domain L43F. The description is as above. The following applies: peptide library: pTyr-Var.
In the case of SNMPTYSGHFS [GRIN2A_Y1224_T1229S], the enrichment score was inactive: 0.742.
On the same count and under the same terms, the same measure for NIWDSYTTNKV [GNB1_Y85_I80N]: inactive: 0.954.
For PLYSKYWPNHI [GREB1L_Y1560_R1558S], the enrichment score was inactive: 1.12.
Still for that read-out and setting: the same measure for KLPFLYDDPFS [GPX2_Y127_P126L_YF]: inactive: 1.17; for IGEVVYQRAAM [GRIN2A_Y502_V506A]: inactive: 0.819; for AKNKDYMSFIR [GNE_Y197_I200F]: inactive: 0.85.
As to GAAMLYFPSVS [GPR143_Y177_YF], the enrichment score is inactive: 0.805.
For LIDSSYLTRTA [GREB1L_Y1063], the enrichment score was inactive: 0.785.
As to LDAFIYDAAVL [GRIN2A_Y730], the enrichment score is inactive: 0.958.
The same measure, in the same setting: under EFTAGYNVKFD [GPX4_Y123_A120T] stands inactive: 1.19.
On the same count and under the same terms, under DNLNNYVFQGQ [GRIN2A_Y978] stands inactive: 1; under ITLKGYNLSNS [GNPTAB_Y728_K732N], inactive: 0.955; under LTQRTYMLENA [GPAA1_Y49_S51L], inactive: 1.1.
Still for that read-out and setting: the same measure for KLPFPYDDPFS [GPX2_Y127_YF]: inactive: 0.763; for TPSGNYVACGG [GNB1_Y111_A106T]: inactive: 0.869; for EKMWSYMKSAE [GRIA3_Y705]: inactive: 1.1.
For HCFAAYFQQGD [GPI_Y351_R347C], the enrichment score was inactive: 1.65.
On to AAVLNYKAGRD [GRIN2A_Y737], for which the enrichment score was inactive: 0.516.

In a further experiment the target is SHP2 N-SH2 domain T42A. The experiment is described as above. The following applies: peptide library: pTyr-Var.
Turning to SNMPTYSGHFS [GRIN2A_Y1224_T1229S], the enrichment score is inactive: 0.692.
Still for that read-out and setting: the same measure for NIWDSYTTNKV [GNB1_Y85_I80N]: inactive: 0.882; for PLYSKYWPNHI [GREB1L_Y1560_R1558S]: inactive: 0.967; for KLPFLYDDPFS [GPX2_Y127_P126L_YF]: inactive: 0.909.
For IGEVVYQRAAM [GRIN2A_Y502_V506A], the enrichment score was inactive: 0.87.
On the same count and under the same terms, under AKNKDYMSFIR [GNE_Y197_I200F] stands inactive: 0.652; under GAAMLYFPSVS [GPR143_Y177_YF], inactive: 0.753.
Still for that read-out and setting: under LIDSSYLTRTA [GREB1L_Y1063] stands inactive: 0.578; under LDAFIYDAAVL [GRIN2A_Y730], inactive: 0.849.
Same read-out and setting: under EFTAGYNVKFD [GPX4_Y123_A120T] stands inactive: 1.02; under DNLNNYVFQGQ [GRIN2A_Y978], inactive: 0.855; under ITLKGYNLSNS [GNPTAB_Y728_K732N], inactive: 0.942.
On to LTQRTYMLENA [GPAA1_Y49_S51L], for which the enrichment score was inactive: 0.612.
KLPFPYDDPFS [GPX2_Y127_YF]: the enrichment score was inactive: 1.54.
Same read-out and setting: the same measure for TPSGNYVACGG [GNB1_Y111_A106T]: inactive: 0.673; for EKMWSYMKSAE [GRIA3_Y705]: inactive: 0.928.
Same read-out and setting: under HCFAAYFQQGD [GPI_Y351_R347C] stands inactive: 1.6; under AAVLNYKAGRD [GRIN2A_Y737], inactive: 0.568.

A further experiment deals with SHP2 N-SH2 domain T52S. The description is as above. The following applies: peptide library: pTyr-Var.
Turning to SNMPTYSGHFS [GRIN2A_Y1224_T1229S], the enrichment score was inactive: 0.662.
Still for that read-out and setting: under NIWDSYTTNKV [GNB1_Y85_I80N] stands inactive: 0.823.
Consider PLYSKYWPNHI [GREB1L_Y1560_R1558S], for which the enrichment score was inactive: 0.689.
KLPFLYDDPFS [GPX2_Y127_P126L_YF]: the enrichment score is inactive: 0.988.
Take IGEVVYQRAAM [GRIN2A_Y502_V506A]: the enrichment score was inactive: 0.794.
On the same count and under the same terms, the same measure for AKNKDYMSFIR [GNE_Y197_I200F]: inactive: 0.848.
For GAAMLYFPSVS [GPR143_Y177_YF], the enrichment score was inactive: 0.782.
In the case of LIDSSYLTRTA [GREB1L_Y1063], the enrichment score was inactive: 0.529.
As to LDAFIYDAAVL [GRIN2A_Y730], the enrichment score was inactive: 1.14.
With EFTAGYNVKFD [GPX4_Y123_A120T], the enrichment score was inactive: 0.897.
Still for that read-out and setting: the same measure for DNLNNYVFQGQ [GRIN2A_Y978]: inactive: 1.19; for ITLKGYNLSNS [GNPTAB_Y728_K732N]: inactive: 0.875.
Turning to LTQRTYMLENA [GPAA1_Y49_S51L], the enrichment score was inactive: 0.854.
For KLPFPYDDPFS [GPX2_Y127_YF], the enrichment score was inactive: 0.809.
On to TPSGNYVACGG [GNB1_Y111_A106T], for which the enrichment score is inactive: 0.784.
Regarding EKMWSYMKSAE [GRIA3_Y705], the enrichment score was inactive: 0.97.
In the case of HCFAAYFQQGD [GPI_Y351_R347C], the enrichment score is inactive: 1.83.
On to AAVLNYKAGRD [GRIN2A_Y737], for which the enrichment score is inactive: 0.711.

The target of the next experiment is SHP2 N-SH2 domain wild-type. The experiment is described as above. The following applies: peptide library: pTyr-Var.
As for SNMPTYSGHFS [GRIN2A_Y1224_T1229S], the enrichment score was inactive: 0.906.
Still for that read-out and setting: under NIWDSYTTNKV [GNB1_Y85_I80N] stands inactive: 1.06.
The same measure, in the same setting: under PLYSKYWPNHI [GREB1L_Y1560_R1558S] stands inactive: 1.12; under KLPFLYDDPFS [GPX2_Y127_P126L_YF], inactive: 1.13.
On to IGEVVYQRAAM [GRIN2A_Y502_V506A], for which the enrichment score was inactive: 1.34.
For the molecule AKNKDYMSFIR [GNE_Y197_I200F], the enrichment score is inactive: 0.687.
Same read-out and setting: under GAAMLYFPSVS [GPR143_Y177_YF] stands inactive: 0.799.
Same read-out and setting: the same measure for LIDSSYLTRTA [GREB1L_Y1063]: inactive: 0.799.
For the molecule LDAFIYDAAVL [GRIN2A_Y730], the enrichment score is inactive: 1.03.
As for EFTAGYNVKFD [GPX4_Y123_A120T], the enrichment score is inactive: 0.969.
Same read-out and setting: under DNLNNYVFQGQ [GRIN2A_Y978] stands inactive: 1.3; under ITLKGYNLSNS [GNPTAB_Y728_K732N], inactive: 0.6; under LTQRTYMLENA [GPAA1_Y49_S51L], inactive: 1.06.
Still for that read-out and setting: the same measure for KLPFPYDDPFS [GPX2_Y127_YF]: inactive: 1.02.
Same read-out and setting: the same measure for TPSGNYVACGG [GNB1_Y111_A106T]: inactive: 0.924; for EKMWSYMKSAE [GRIA3_Y705]: inactive: 0.75; for HCFAAYFQQGD [GPI_Y351_R347C]: inactive: 1.94.
With AAVLNYKAGRD [GRIN2A_Y737], the enrichment score is inactive: 0.727.
